# Measurements as given in the supplement of paper PMC11316812.
# ± gives the standard deviation of the averaged measurements.
# Columns and labels:
# MCF7 = assay: percentage of EdU-negative (G0-arrested) nuclei per well, 72 h; higher = more G0 arrest; conditions: reference: sequence is the full UniProt precursor, the tested protein was the secreted form or ectodomain
# hTERT-HMEC = assay: as above; conditions: reference: sequence is the full UniProt precursor, the tested protein was the secreted form or ectodomain
# [1] = protein concentration 0.0225 µM
# [2] = protein concentration 0.00685714 µM
# [3] = protein concentration 0.0685714 µM
# [4] = protein concentration 0.01875 µM
# [5] = protein concentration 0.1875 µM
# [6] = protein concentration 0.0297143 µM
# [7] = protein concentration 0.297143 µM
# 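Further: secreted proteins added to cultured cells, EdU pulse at the end, nuclei found by Hoechst imaging, EdU status from nuclear versus surrounding ring intensity ratio, PBS as neutral control.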
Sequence,percentage of EdU-negative (MCF7; [1]),percentage of EdU-negative (MCF7; protein concentration 0.225 µM),percentage of EdU-negative (hTERT-HMEC; [1]),percentage of EdU-negative (hTERT-HMEC; protein concentration 0.225 µM),also measured
MAGPRACAPLLLLLLLGELLAAAGAQRVGLPGPPGPPGPPGKPGQDGIDGEAGPPGLPGPPGPKGAPGKPGKPGEAGLPGLPGVDGLTGRDGPPGPKGAPGERGSLGPPGPPGLGGKGLPGPPGEAGVSGPPGGIGLRGPPGPSGLPGLPGPPGPPGPPGHPGVLPEGATDLQCPSICPPGPPGPPGMPGFKGPTGYKGEQGEVGKDGEKGDPGPPGPAGLPGSVGLQGPRGLRGLPGPLGPPGDRGPIGFRGPPGIPGAPGKAGDRGERGPEGFRGPKGDLGRPGPKGTPGVAGPSGEPGMPGKDGQNGVPGLDGQKGEAGRNGAPGEKGPNGLPGLPGRAGSKGEKGERGRAGELGEAGPSGEPGVPGDAGMPGERGEAGHRGSAGALGPQGPPGAPGVRGFQGQKGSMGDPGLPGPQGLRGDVGDRGPGGAAGPKGDQGIAGSDGLPGDKGELGPSGLVGPKGESGSRGELGPKGTQGPNGTSGVQGVPGPPGPLGLQGVPGVPGITGKPGVPGKEASEQRIRELCGGMISEQIAQLAAHLRKPLAPGSIGRPGPAGPPGPPGPPGSIGHPGARGPPGYRGPTGELGDPGPRGNQGDRGDKGAAGAGLDGPEGDQGPQGPQGVPGTSKDGQDGAPGEPGPPGDPGLPGAIGAQGTPGICDTSACQGAVLGGVGEKSGSRSS,25 ± 1.2%,25.36 ± 0.048%,4.85 ± 0.34%,5.07 ± 0.74%,–
MAHYITFLCMVLVLLLQNSVLAEDGEVRSSCRTAPTDLVFILDGSYSVGPENFEIVKKWLVNITKNFDIGPKFIQVGVVQYSDYPVLEIPLGSYDSGEHLTAAVESILYLGGNTKTGKAIQFALDYLFAKSSRFLTKIAVVLTDGKSQDDVKDAAQAARDSKITLFAIGVGSETEDAELRAIANKPSSTYVFYVEDYIAISKIREVMKQKLCEESVCPTRIPVAARDERGFDILLGLDVNKKVKKRIQLSPKKIKGYEVTSKVDLSELTSNVFPEGLPPSYVFVSTQRFKVKKIWDLWRILTIDGRPQIAVTLNGVDKILLFTTTSVINGSQVVTFANPQVKTLFDEGWHQIRLLVTEQDVTLYIDDQQIENKPLHPVLGILINGQTQIGKYSGKEETVQFDVQKLRIYCDPEQNNRETACEIPGFNGECLNGPSDVGSTPAPCICPPGKPGLQGPKGDPGLPGNPGYPGQPGQDGKPGYQGIAGTPGVPGSPGIQGARGLPGYKGEPGRDGDKGDRGLPGFPGLHGMPGSKGEMGAKGDKGSPGFYGKKGAKGEKGNAGFPGLPGPAGEPGRHGKDGLMGSPGFKGEAGSPGAPGQDGTRGEPGIPGFPGNRGLMGQKGEIGPPGQQGKKGAPGMPGLMGSNGSPGQPGTPGSKGSKGEPGIQGMPGASGLKGEPGATGSPGEPGYMGLPGIQGKKGDKGNQGEKGIQGQKGENGRQGIPGQQGIQGHHGAKGERGEKGEPGVRGAIGSKGESGVDGLMGPAGPKGQPGDPGPQGPPGLDGKPGREFSEQFIRQVCTDVIRAQLPVLLQSGRIRNCDHCLSQHGSPGIPGPPGPIGPEGPRGLPGLPGRDGVPGLVGVPGRPGVRGLKGLPGRNGEKGSQGFGYPGEQGPPGPPGPEGPPGISKEGPPGDPGLPGKDGDHGKPGIQGQPGPPGICDPSLCFSVIARRDPFRKGPNY [Q96P44],–,–,–,–,percentage of EdU-negative (MCF7; [2]): 22.4 ± 0.71%; percentage of EdU-negative (MCF7; [3]): 26.57 ± 0.11%; percentage of EdU-negative (hTERT-HMEC; [2]): 5.32 ± 0.33%; percentage of EdU-negative (hTERT-HMEC; [3]): 5.995 ± 0.026%
MAPWSHPSAQLQPVGGDAVSPALMVLLCLGLSLGPRTHVQAGNLSKATLWAEPGSVISRGNSVTIRCQGTLEAQEYRLVKEGSPEPWDTQNPLEPKNKARFSIPSMTEHHAGRYRCYYYSPAGWSEPSDPLELVVTGFYNKPTLSALPSPVVTSGENVTLQCGSRLRFDRFILTEEGDHKLSWTLDSQLTPSGQFQALFPVGPVTPSHRWMLRCYGSRRHILQVWSEPSDLLEIPVSGAADNLSPSQNKSDSGTASHLQDYAVENLIRMGMAGLILVVLGILIFQDWHSQRSPQAAAGR [A6NI73],–,–,–,–,percentage of EdU-negative (MCF7; [4]): 24 ± 1.6%; percentage of EdU-negative (MCF7; [5]): 26.1 ± 2.9%; percentage of EdU-negative (hTERT-HMEC; [4]): 6.2 ± 0.49%; percentage of EdU-negative (hTERT-HMEC; [5]): 11.2 ± 0.64%
MAQKGVLGPGQLGAVAILLYLGLLRSGTGAEGAEAPCGVAPQARITGGSSAVAGQWPWQVSITYEGVHVCGGSLVSEQWVLSAAHCFPSEHHKEAYEVKLGAHQLDSYSEDAKVSTLKDIIPHPSYLQEGSQGDIALLQLSRPITFSRYIRPICLPAANASFPNGLHCTVTGWGHVAPSVSLLTPKPLQQLEVPLISRETCNCLYNIDAKPEEPHFVQEDMVCAGYVEGGKDACQGDSGGPLSCPVEGLWYLTGIVSWGDACGARNRPGVYTLASSYASWIQSKVTELQPRVVPQTQESQPDSNLCGSHLAFSSAPAQGLLRPILFLPLGLALGLLSPWLSEH,24.4 ± 1.8%,24.6 ± 0.59%,7.44 ± 0.097%,30.3 ± 4.4%,–
MARLLWLLRGLTLGTAPRRAVRGQAGGGGPGTGPGLGEAGSLATCELPLAKSEWQKKLTPEQFYVTREKGTEPPFSGIYLNNKEAGMYHCVCCDSPLFSSEKKYCSGTGWPSFSEAHGTSGSDESHTGILRRLDTSLGSARTEVVCKQCEAHLGHVFPDGPGPNGQRFCINSVALKFKPRKH [Q9Y3D2],25.2 ± 0.89%,25.89 ± 0.18%,4.73 ± 0.076%,4.8466 ± 0.0027%,–
MDNQGVIYSDLNLPPNPKRQQRKPKGNKNSILATEQEITYAELNLQKASQDFQGNDKTYHCKDLPSAPEKLIVGILGIICLILMASVVTIVVIPSTLIQRHNNSSLNTRTQKARHCGHCPEEWITYSNSCYYIGKERRTWEESLLACTSKNSSLLSIDNEEEMKFLSIISPSSWIGVFRNSSHHPWVTMNGLAFKHEIKDSDNAELNCAVLQVNRLKSAQCGSSIIYHCKHKL,23.5 ± 1.5%,25.6 ± 1.6%,5.08 ± 0.35%,4.9 ± 0.15%,–
MKDDFAEEEEVQSFGYKRFGIQEGTQCTKCKNNWALKFSIILLYILCALLTITVAILGYKVVEKMDNVTGGMETSRQTYDDKLTAVESDLKKLGDQTGKKAISTNSELSTFRSDILDLRQQLREITEKTSKNKDTLEKLQASGDALVDRQSQLKETLENNSFLITTVNKTLQAYNGYVTNLQQDTSVLQGNLQNQMYSHNVVIMNLNNLNLTQVQQRNLITNLQRSVDDTSQAIQRIKNDFQNLQQVFLQAKKDTDWLKEKVQSLQTLAANNSALAKANNDTLEDMNSQLNSFTGQMENITTISQANEQNLKDLQDLHKDAENRTAIKFNQLEERFQLFETDIVNIISNISYTAHHLRTLTSNLNEVRTTCTDTLTKHTDDLTSLNNTLANIRLDSVSLRMQQDLMRSRLDTEVANLSVIMEEMKLVDSKHGQLIKNFTILQGPPGPRGPRGDRGSQGPPGPTGNKGQKGEKGEPGPPGPAGERGPIGPAGPPGERGGKGSKGSQGPKGSRGSPGKPGPQGSSGDPGPPGPPGKEGLPGPQGPPGFQGLQGTVGEPGVPGPRGLPGLPGVPGMPGPKGPPGPPGPSGAVVPLALQNEPTPAPEDNGCPPHWKNFTDKCYYFSVEKEIFEDAKLFCEDKSSHLVFINTREEQQWIKKQMVGRESHWIGLTDSERENEWKWLDGTSPDYKNWKAGQPDNWGHGHGPGEDCAGLIYAGQWNDFQCEDVNNFICEKDRETVLSSAL [Q5KU26],–,–,–,–,percentage of EdU-negative (MCF7; protein concentration 0.014 µM): 24.6 ± 1.5%; percentage of EdU-negative (MCF7; protein concentration 0.14 µM): 30.5 ± 2.3%; percentage of EdU-negative (hTERT-HMEC; protein concentration 0.014 µM): 4.89 ± 0.26%; percentage of EdU-negative (hTERT-HMEC; protein concentration 0.14 µM): 5.83 ± 0.4%
MKLLVLAVLLTVAAADSGISPRAVWQFRKMIKCVIPGSDPFLEYNNYGCYCGLGGSGTPVDELDKCCQTHDNCYDQAKKLDSCKFLLDNPYTHTYSYSCSGSAITCSSKNKECEAFICNCDRNAAICFSKAPYNKAHKNLDTKKYCQS,26 ± 0.9%,25.4 ± 4.6%,5.18 ± 0.11%,7.86 ± 2.2%,–
MKPLLLAVSLGLIAALQAHHLLASDEEIQDVSGTWYLKAMTVDREFPEMNLESVTPMTLTTLEGGNLEAKVTMLISGRCQEVKAVLEKTDEPGKYTADGGKHVAYIIRSHVKDHYIFYCEGELHGKPVRGVKLVGRDPKNNLEALEDFEKAAGARGLSTESILIPRQSETCSPGSD,–,–,–,–,percentage of EdU-negative (MCF7; [6]): 23.1 ± 0.54%; percentage of EdU-negative (MCF7; [7]): 25.8 ± 1.7%; percentage of EdU-negative (hTERT-HMEC; [6]): 4.86 ± 0.068%; percentage of EdU-negative (hTERT-HMEC; [7]): 9.01 ± 0.57%
MKTCWKIPVFFFVCSFLEPWASAAVKRRPRFPVNSNSNGGNELCPKIRIGQDDLPGFDLISQFQVDKAASRRAIQRVVGSATLQVAYKLGNNVDFRIPTRNLYPSGLPEEYSFLTTFRMTGSTLKKNWNIWQIQDSSGKEQVGIKINGQTQSVVFSYKGLDGSLQTAAFSNLSSLFDSQWHKIMIGVERSSATLFVDCNRIESLPIKPRGPIDIDGFAVLGKLADNPQVSVPFELQWMLIHCDPLRPRRETCHELPARITPSQTTDERGPPGEQGPPGPPGPPGVPGIDGIDGDRGPKGPPGPPGPAGEPGKPGAPGKPGTPGADGLTGPDGSPGSIGSKGQKGEPGVPGSRGFPGRGIPGPPGPPGTAGLPGELGRVGPVGDPGRRGPPGPPGPPGPRGTIGFHDGDPLCPNACPPGRSGYPGLPGMRGHKGAKGEIGEPGRQGHKGEEGDQGELGEVGAQGPPGAQGLRGITGIVGDKGEKGARGLDGEPGPQGLPGAPGDQGQRGPPGEAGPKGDRGAEGARGIPGLPGPKGDTGLPGVDGRDGIPGMPGTKGEPGKPGPPGDAGLQGLPGVPGIPGAKGVAGEKGSTGAPGKPGQMGNSGKPGQQGPPGEVGPRGPQGLPGSRGELGPVGSPGLPGKLGSLGSPGLPGLPGPPGLPGMKGDRGVVGEPGPKGEQGASGEEGEAGERGELGDIGLPGPKGSAGNPGEPGLRGPEGSRGLPGVEGPRGPPGPRGVQGEQGATGLPGVQGPPGRAPTDQHIKQVCMRVIQEHFAEMAASLKRPDSGATGLPGRPGPPGPPGPPGENGFPGQMGIRGLPGIKGPPGALGLRGPKGDLGEKGERGPPGRGPNGLPGAIGLPGDPGPASYGRNGRDGERGPPGVAGIPGVPGPPGPPGLPGFCEPASCTMQAGQRAFNKGPDP,–,–,–,–,percentage of EdU-negative (MCF7; protein concentration 0.014 µM): 27.4 ± 0.72%; percentage of EdU-negative (MCF7; protein concentration 0.14 µM): 28.1 ± 2.1%; percentage of EdU-negative (hTERT-HMEC; protein concentration 0.014 µM): 4.72 ± 0.95%; percentage of EdU-negative (hTERT-HMEC; protein concentration 0.14 µM): 6.48 ± 1.2%
MLNLLLLALPVLASRAYAAPAPGQALQRVGIVGGQEAPRSKWPWQVSLRVRDRYWMHFCGGSLIHPQWVLTAAHCVGPDVKDLAALRVQLREQHLYYQDQLLPVSRIIVHPQFYTAQIGADIALLELEEPVNVSSHVHTVTLPPASETFPPGMPCWVTGWGDVDNDERLPPPFPLKQVKVPIMENHICDAKYHLGAYTGDDVRIVRDDMLCAGNTRRDSCQGDSGGPLVCKVNGTWLQAGVVSWGEGCAQPNRPGIYTRVTYYLDWIHHYVPKKP,23.97 ± 0.13%,26.4 ± 0.76%,4.99 ± 1.1%,6.02 ± 0.23%,–
